# Experimental data published in PubChem BioAssay AID2675 (National Center for Advancing Translational Sciences (NCATS), 2010).
# Among all 280,000 compounds or so, about 100 (0.036%) were called active. Inconclusive results, whose numbers are uncertain, are shown with a selection of clear calls. The call rests on the fitted dose curve; in most records, active means well fitted inhibition curve with a large enough effect in the signal ratio, with a control signal flat (not every such curve was filed as active); inconclusive means small, poorly fitted or top-dose-only effect, or effect the other way, or a change in a side signal; inactive means no such curve, though single readings can be large or run the other way; the % refers to the signal ratio. A potency beside an inconclusive call is a rough fit, not a confirmed value. A note “side channel” means that the fit belongs to a control or component signal, not to the main read-out.
# Target: Muscleblind-like protein 1 (Homo sapiens) (UniProt Q9NR56)
# Sequence of UniProt Q9NR56 (Q9NR56 whole entry, looked up): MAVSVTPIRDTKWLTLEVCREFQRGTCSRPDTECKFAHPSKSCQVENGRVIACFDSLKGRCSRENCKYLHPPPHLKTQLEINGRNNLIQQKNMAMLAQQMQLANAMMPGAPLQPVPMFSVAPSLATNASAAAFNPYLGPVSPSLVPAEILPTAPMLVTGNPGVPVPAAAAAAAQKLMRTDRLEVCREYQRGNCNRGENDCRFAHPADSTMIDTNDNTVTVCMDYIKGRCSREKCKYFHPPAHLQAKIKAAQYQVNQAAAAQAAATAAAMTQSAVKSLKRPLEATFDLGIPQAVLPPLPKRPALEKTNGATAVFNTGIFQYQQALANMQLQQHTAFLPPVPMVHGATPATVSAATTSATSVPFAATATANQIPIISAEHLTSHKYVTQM
# Experiment: qHTS Assay for Inhibitors of MBNL1-poly(CUG) RNA binding
# Details: TR-FRET MBNL1-His/biotin-(CUG)12 binding, 665/545 ratio; activity change, negative = inhibition: at 57.5 µM (top of the series)
# Procedure, shortened: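 MBNL1-His + Biotin-(CUG)12, cpd titration 92 nM–58 uM; Tb anti-His Ab 0.055 ng/ul, SA-XL665 5 nM (final); 60 min RT; ratiometric 665/545 nm, Ex 340 nm; normalized to buffer and full-complex controls.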
# On the % scale 0 is the no-effect control and ±100 the full control effect; potency means the concentration at half of the fitted maximal effect; tags describe the fitted curve by direction and shape or compound fluorescence and quenching.
SMILES,Potency,"activity change, negative = inhibition"
COc1cccc2c1C(=O)C=C(C)C2=O,"inconclusive: 0.891 µM [quencher, side channel, full curve]",–
CCc1ccc(S(=O)(=O)Nc2ccc(-c3nc4cccnc4s3)cc2)s1,"inconclusive: 20 µM [quencher, side channel, single point]",–
O=C(Nc1ccc(O)cc1)c1ccc2c(c1)C(=O)N(Cc1ccco1)C2=O,"inconclusive: 8.91 µM [quencher, side channel, partial curve]",–
CN(CC(=O)NCCC1=CCCCC1)S(=O)(=O)c1ccc2c(c1)CCC(=O)N2,"inconclusive: 8.91 µM [quencher, side channel, partial curve]",–
CN1C(C(=O)Nc2ccc(OC(F)(F)F)cc2)=CC(c2cccs2)=NS1(=O)=O,"inconclusive: 20 µM [quencher, side channel, single point]",–
Cn1nnnc1SCC(=O)c1ccc(Br)s1,"inconclusive: 22.4 µM [quencher, side channel, partial curve]",–
Cc1c(CCC(=O)NCCCn2ccnc2)c(=O)oc2cc3oc4c(c3cc12)CCCC4,inactive,–
CC(Oc1ccc2c(-c3ccccc3)cc(=O)oc2c1)C(=O)NCCCn1ccnc1 (stereo unspecified),"inconclusive: 35.5 µM [quencher, side channel, single point]",–
Cc1cc(C)c(NC(=O)COC(=O)C2CCC2)c(Cl)c1,inactive,–
Cc1cccc(N2C(=O)/C(=C\c3ccc(OC(F)F)cc3)c3ccccc3C2=O)c1,"inconclusive: 100 µM [inhibitor, single point]",–
O=C(NN=C1CCN(Cc2ccccc2)CC1)c1cc(Br)ccc1O,inactive,–
CCOC(=O)N1CCN(C(=O)c2cccc(NC3=NC4CS(=O)(=O)CC4S3)c2)CC1 (stereo unspecified),"inconclusive: 39.8 µM [quencher, side channel, single point]",–
O=C(c1cccc(Oc2ccc([N+](=O)[O-])cc2Cl)c1)N1CCCCC1,"inconclusive: 14.1 µM [quencher, side channel, partial curve]",–
CC(=O)Nc1ccc(OS(=O)(=O)c2ccc([N+](=O)[O-])cc2)cc1,"inconclusive: 14.1 µM [quencher, side channel, partial curve]",–
CO/N=C/NC(=O)c1ccc([N+](=O)[O-])c(CS(=O)(=O)c2ccc(Cl)cc2)c1,"inconclusive: 2.24 µM [quencher, side channel, full curve]",–
COc1cc(OC)c(NC(=O)Cn2cnc3sc(C)c(S(=O)(=O)N4CCOCC4)c3c2=O)cc1Cl,inactive,–
O=C(N/N=C\c1cccc([N+](=O)[O-])c1O)C1COc2ccccc2O1 (stereo unspecified),"inconclusive: 17.8 µM [quencher, side channel, partial curve]",–
CSCCC(NC(=O)c1ccccc1)C(=O)NC1CC1 (stereo unspecified),"inconclusive: 100 µM [inhibitor, partial curve, poor fit]",–
COC(=O)c1cccc2nc3c(C(C)O)cccc3nc12 (stereo unspecified),"inconclusive: 3.16 µM [quencher, side channel, partial curve]",–
CCOC(=O)CSC1=C(C#N)C(=O)NC2(CCCCC2)S1,inactive,–
COc1cc(/C=N/NC(=O)CNC(=O)c2ccncc2)ccc1O,inactive,–

SMILES,Potency,"activity change, negative = inhibition"
CCCn1c(=N)c(C(=O)NCc2ccc3c(c2)OCO3)cc2c(=O)n3cccc(C)c3nc21,"inconclusive: 5.01 µM [quencher, side channel, full curve]",–
CCOC(=O)c1cnc(SCc2cccc3ccccc23)nc1N,inactive,–
Cc1c(NC(=O)OCCNC(=O)COc2ccc(Cl)cc2Cl)sc(=S)n1C,"inconclusive: 35.5 µM [fluorescent, side channel, partial curve, poor fit]",–
CC(=O)/C(=N\Nc1ccc(Cl)cc1)Sc1nnc(-c2ccccc2)n1-c1ccccc1,"inconclusive: 0.355 µM [fluorescent, side channel, full curve]",–
OCCCNCc1ccc(N(c2ccccc2)c2ccccc2)cc1,inactive,–
CC(C)CCC(C)NC(=O)c1ccc2nccnc2c1 (stereo unspecified),"inconclusive: 14.1 µM [quencher, side channel, single point]",–
N#Cc1c(N)sc(=S)c2c1CCN(Cc1ccccc1)C2,"inconclusive: 3.16 µM [quencher, side channel, full curve]",–
CC(NC(=O)Nc1cccc([N+](=O)[O-])c1)(C(F)(F)F)C(F)(F)F,"inconclusive: 35.5 µM [quencher, side channel, single point]",–
O=C(O)c1cc(-c2ccc(Cl)cc2)n(-c2ccccc2)n1,inactive,–
COc1ccc2nc(Nc3nc(CSc4nnnn4-c4ccccc4)cc(=O)[nH]3)nc(C)c2c1,inactive,–
CCOc1ccc(-c2c(C)n([O-])c3c([n+]2=O)CCCC3)cc1,"inconclusive: 35.5 µM [quencher, side channel, single point]",–
O=C(Oc1ccccc1/C=C\C(=O)c1cc2ccccc2o1)c1ccccc1,inactive,–
Cc1ccc(/C=N/N=C2/NC(=O)C(CC(=O)Nc3ccc(Cl)cc3)S2)o1 (stereo unspecified),"inconclusive: 35.5 µM [fluorescent, side channel, partial curve]",–
COC(=O)c1sc2nc(C)cc(C)c2c1N,"inconclusive: 28.2 µM [quencher, side channel, single point]",–
Cn1nnnc1SCC(=O)NC(=O)c1cccc([N+](=O)[O-])c1,"inconclusive: 22.4 µM [quencher, side channel, partial curve]",–
CCOC(=O)Cn1c(=O)oc2cc(S(=O)(=O)N3CCn4c3nc3ccccc34)ccc21,–,inconclusive: 2.89% [phenotype inactive]
Cc1sc2ncnc(SCC(=O)c3ccc(O)cc3O)c2c1C,inactive,–
CCc1ccc2[nH]c(=O)c(C(c3nnnn3CCOC)N3CCN(c4ccc(F)cc4)CC3)cc2c1 (stereo unspecified),"inconclusive: 12.6 µM [quencher, partial curve]",–
CC(=O)c1cccc(Oc2cc(NN3CCCCC3)c([N+](=O)[O-])cc2[N+](=O)[O-])c1,"inconclusive: 15.8 µM [quencher, side channel, partial curve]",–
COc1ccc(OC)c2nc(-c3ccncc3)ccc12,"inconclusive: 20 µM [quencher, side channel, partial curve]",–
CCOC(=O)N1CCN(C(=O)Nc2ccccc2Cl)CC1,"inconclusive: 20 µM [quencher, side channel, single point]",–

SMILES,Potency,"activity change, negative = inhibition"
O=C1Nc2ccc([N+](=O)[O-])cc2OC1CCN1CCN(Cc2ccc3c(c2)OCO3)CC1 (stereo unspecified),"inconclusive: 15.8 µM [quencher, side channel, partial curve]",–
O=C(O)C1CCN(S(=O)(=O)c2cccc3nsnc23)CC1,"inconclusive: 15.8 µM [quencher, side channel, partial curve]",–
CC(C)Cc1csc(NC(=O)c2ccc(Cl)cc2)c1C(=O)O,"inconclusive: 63.1 µM [inhibitor, partial curve]",–
COc1ccc(-c2c(C)c3ccc(OCC(C)=O)cc3oc2=O)cc1,"inconclusive: 14.1 µM [quencher, side channel, partial curve]",–
CCCOc1ccc(/C=N\NC(=O)CCc2n[nH]c(=O)[nH]c2=O)cc1OC,"inconclusive: 28.2 µM [quencher, side channel, single point]",–
CC1(C)CC(NC(=O)Nc2ccc([N+](=O)[O-])cc2)CC(C)(C)N1,"inconclusive: 15.8 µM [quencher, side channel, partial curve]",–
CCCCOc1ccc(CSCCNC(=S)Nc2ccccc2)cc1,"inconclusive: 28.2 µM [fluorescent, side channel, partial curve]",–
CN1CCN(NC(=O)c2ccc(Cl)c([N+](=O)[O-])c2)CC1,"inconclusive: 15.8 µM [quencher, side channel, partial curve]",–
CCCCC1=CC2=CC(=O)C(C)(OC(=O)CC)C(=O)C2=CN1Cc1ccccc1 (stereo unspecified),"inconclusive: 39.8 µM [quencher, single point]",–
O=C(Nc1ccc2c(c1)OCCO2)c1ccc2nccnc2c1,"inconclusive: 10 µM [quencher, side channel, partial curve]",–
NS(=O)(=O)c1ccc(NC(=O)COC(=O)C23CC4CC(CC(C4)C2)C3)cc1,"inconclusive: 2.82 µM [fluorescent, side channel, full curve, poor fit]",–
CCN(CC)CC#CCC(O)(c1ccccc1)C1CCCC1 (stereo unspecified),"inconclusive: 39.8 µM [quencher, side channel, single point]",–
S=c1[nH]nc(-c2cccnc2)n1/N=C/c1cccs1,"inconclusive: 22.4 µM [quencher, side channel, single point]",–
Cc1ccc(C)c(NC(=O)CSc2n[nH]c(-c3ccccn3)n2)c1,inactive,–
O=C1N(Cc2cccnc2)C[C@@H]2C[C@@H](c3ccc4nsnc4c3)N3CCC[C@@]123,"inconclusive: 2.24 µM [quencher, side channel, partial curve]",–
O=C1c2c([N+](=O)[O-])cc([N+](=O)[O-])cc2S(=O)N1Cc1ccccc1 (stereo unspecified),"inconclusive: 12.6 µM [quencher, side channel, partial curve]",–
CCCCNC(=O)C1CCN(c2nc(C)cc(C)n2)CC1,inactive,–
CCn1cc(C2=NCCO2)c2ccccc21,inactive,–
CCc1cccc(CC)c1NC(=O)CSc1nnc(C(C)C)n1CC,"inconclusive: 100 µM [inhibitor, single point]",–
